Measured values as given in PubChem BioAssay (NCI).
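Growth conditions: 96-well plates. Treatment: test compound, 48 hours, 5 concentrations. Analysis: linear interpolation between bracketing concentrations; unreached endpoints set to highest concentration. The concentration for 50% growth inhibition is given as GI50. TGI marks complete inhibition of growth.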

The molecules below were run on NCI-H322M lung (assay: NCI anticancer screen, dose series, 48 h).
Cc1ccc(NC2=C(Cl)C(=O)N(Cc3ccc(Cl)cc3)C2=O)cc1O showed a GI50 of 5.11 µM and a TGI of 21 µM. O=C(O)Cc1cc(=O)[nH]c2c1/C(=N/O)CCC2 was tested, and the TGI was over 100 µM. Molecule CC1(C)CCc2c(c(N=Nc3ccc(S(N)(=O)=O)cc3)c3ccccc3c2O)O1 has a TGI of 26.6 µM. COc1c(OC(C)C)c(OC(C)C)c2oc(=O)n3c2c1C(c1ccccc1-n1c(C)ccc1C)C=C3 (centres undefined) gave a TGI of 78.2 µM. In the case of C[C@]12CCC(=O)C(O)=C1CC[C@@H]1C2CC[C@]2(C)NC(=O)CCC12 (some centres undefined), the TGI is reported as over 100 µM. For COc1ccc(NC(=O)CC/C(CC(=O)C(C)(C)C)=N\NC(=O)C(=O)NN)cc1, the TGI was over 100 µM. With CNC(=S)NC(=O)c1c(Cl)n(C(=O)OC(C)(C)C)c2ccccc12 the GI50 was over 100 µM and the TGI was over 100 µM. Work on COc1ccc(-c2oc(=O)ccc2-c2cc(OC)c(OC)c(OC)c2)cc1O yielded a GI50 of over 19.8 µM and a TGI of over 100 µM. CN(C)CC1CN=C(N)O1 (centres undefined) gave a TGI of over 100 µM. Molecule CC(=O)N1C/C(=C/c2ccc(Cl)cc2)C(=O)/C(=C/c2ccc(Cl)cc2)C1 has a GI50 of 2.04 µM and a TGI of 4.87 µM.
